Test results from PubChem BioAssay AID602156 (GNF / Scripps Winzeler lab, 2011).
The other results are listed elsewhere or left out. Further columns of the screen follow, without active or inactive calls.

Experiment: exo-erythrocytic parasite development inhibition – imaging, Malaria Box, P. yoelii, HepG2-A16-CD81EGFP, dose response (AID 602156);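 note: infected cells exposed to compound for 48 hours before fixation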
Details: P. yoelii liver stage in HepG2-A16-CD81EGFP, measured here: liver parasite size at 10 uM

Row | Compound | parasite size
1 | Oc1cccc2ccc(Nc3ccccn3)nc12 | 30.2 um
2 | Cc1ccc(Nc2cc(C)nc(NCc3ccccc3)n2)c(C)c1 | 89.1 um
3 | CC(C)c1nc(N2CCN(C(=O)Nc3ccccc3)CC2)c(C#N)c2c1COC(C)(C)C2 | 82.2 um
4 | CCOc1ccc(CN(C(=O)COc2ccc(Cl)cc2)C(C)CCCN(CC)CC)cc1 (stereo not given) | 55.3 um
5 | O=C(Nc1ccc(-c2nc3ccc(NC(=O)c4ccc(Br)o4)cc3[nH]2)cc1)c1ccc(Br)o1 | 101 um
6 | O=C1c2ccccc2C2=Nc3ccccc3SC(c3cccc(F)c3)C12 (stereo not given) | 30.1 um
7 | CCc1nc(N)nc(N)c1-c1ccc(Cl)cc1 | 37.6 um
8 | Cc1ncc(CCCCN(C)C)c2c1[nH]c1ccccc12 | 133 um
9 | Cc1[nH]c2c(C)cccc2c(=O)c1CC=C(Cl)Cl | 31.2 um
10 | COc1ccc(C2CC(=O)C3=C(C2)NC(C)=C(C(=O)OC2CCCC2)C3c2cccc(C)c2)cc1OC (stereo not given) | 66.8 um
11 | O=C1C2=C(Nc3ccccc3SC2c2ccccc2)c2ccccc21 (stereo not given) | 28.4 um
12 | Nc1ccc(-c2nc3cc(Oc4ccc(Oc5ccc6[nH]c(-c7ccc(N)cc7)nc6c5)cc4)ccc3[nH]2)cc1 | 116 um
13 | O=c1c2c([nH]c3ccccc13)CCCC2 | 39.5 um
14 | O=C(NC(=C(Cl)Cl)[P+](c1ccccc1)(c1ccccc1)c1ccccc1)c1ccc(F)cc1 | 26.9 um
15 | CCN(CC)CCCNc1nc2cc(OC)c(OC)cc2c2nc(-c3ccccc3)nn12 | 52.6 um
16 | CCN1C(=Cc2cc[n+](C)cc2)C=Cc2cc(C)ccc21 | 25.6 um
17 | COc1ccc(C2Sc3ccccc3NC3=C2C(=O)c2ccccc23)cc1 (stereo not given) | 39.1 um
18 | OCCNc1nc(Nc2ccc(F)cc2)nc2ccccc12 | 91.1 um
19 | CC1(C)N=C(N)N=C(N)N1c1ccc(Cl)cc1 | 33.1 um
20 | CC(C)NC(=O)c1cc(NC(=O)c2cccs2)ccc1N1CCc2ccccc2C1 | 26.9 um

Row | Compound | parasite size
21 | CCCc1c(C)[nH]c2ccccc2c1=O | 34.5 um
22 | Fc1ccc(Nc2nc(NCc3ccco3)c3ccccc3n2)cc1 | 45.3 um
23 | CCCCc1c(CCC)c(=N)c2ccccc2n1C | 58.1 um
24 | C1CCC(NP2(NC3CCCCC3)=NP(NC3CCCCC3)(NC3CCCCC3)=NP(NC3CCCCC3)(NC3CCCCC3)=N2)CC1 | 33.8 um
25 | Cc1ccc2nc3nc4c(C)cccc4c(N)c3cc2c1 | 22.2 um
26 | O=[N+]([O-])c1ccc(N2CCCN(C(=S)Nc3ccc(F)cc3Br)CC2)nc1 | 120 um
27 | CN1C(=O)N(C)C(NNC(N)=S)C1NNC(N)=S (stereo not given) | 118 um
28 | CN(C)c1ccc(C(C=C2C=C(c3ccccc3)C=C(c3ccccc3)O2)=C2C=CC(=[N+](C)C)C=C2)cc1 | 26.7 um
29 | N#CC1=C(N)Oc2c3c(c4ccccc4c2C1c1ccc(F)cc1)C(c1ccc(F)cc1)C(C#N)=C(N)O3 (stereo not given) | 106 um
30 | Oc1c(CN2CCN(Cc3ccc4cccnc4c3O)CC2)ccc2cccnc12 | 21.2 um
31 | Nc1cccc(C(=O)Nc2ccc(Oc3cccc(Oc4ccc(NC(=O)c5cccc(N)c5)cc4)c3)cc2)c1 | 90.8 um
32 | Clc1cccc(Nc2nc(NCc3ccco3)c3ccccc3n2)c1 | 36.6 um
33 | CCOC(=O)c1ccc(NCc2c(C)[nH]c3ccccc3c2=O)cc1 | 18.3 um
34 | CCCCN(CCCC)[P+](N(CCCC)CCCC)(N(CCCC)CCCC)N(CCCC)CCCC | 24.3 um
35 | COc1ccccc1Nc1nc(NCc2ccccc2)c2ccccc2n1 | 40.3 um
36 | CC(=O)N(C)C1=C(N2CCCC2)C(=O)c2ccccc2C1=O | 124 um
37 | O=C(Nc1ccc(-c2ccc(Cl)cc2)cc1)c1cccs1 | 31.7 um
38 | Brc1ccc(Nc2nc(NCc3ccco3)c3ccccc3n2)cc1 | 35.2 um
39 | COc1ccc(C2N(Cc3ccccc3)c3ccccc3N2Cc2ccccc2)cc1 | 30.8 um
40 | COc1ccc(C2CC(=O)C3=C(C2)NC(C)=C(C(=O)OC2CCCC2)C3c2ccc([N+](=O)[O-])cc2)cc1OC (stereo not given) | 104 um
